Assay results: PubChem BioAssay AID1030 (National Center for Advancing Translational Sciences (NCATS), 2008)
Hit rate of the full screen: of about 220,000 compounds, about 16,000 (7.3%) were called active. This list was built around the results that the source calls inconclusive (neither active nor inactive); the mix of calls is not that of the screen. Calls follow the shape of the dose curve; as a rule, active = well fitted inhibition curve with a large enough effect (not every such curve was filed as active); inconclusive = small, poorly fitted or top-dose-only effect, or another doubt; inactive = no such curve, though single readings can be large or run the other way. Potencies of inconclusive entries are left out as doubtful fits.

molecular target: Aldehyde dehydrogenase 1A1 (Homo sapiens) (UniProt P00352); test: qHTS Assay for Inhibitors of Aldehyde Dehydrogenase 1 (ALDH1A1); conditions: Purified ALDH1A1, NADH fluorescence, propionaldehyde substrate; series mostly up to 75.3 µM;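 as to activity, negative = inhibition: plate controls were no enzyme wells and a reference inhibitor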
Potency is read from the fitted curve at half-maximal effect; tags tell the direction and shape of the fitted curve.

Sequence of UniProt P00352 (P00352 whole entry, looked up): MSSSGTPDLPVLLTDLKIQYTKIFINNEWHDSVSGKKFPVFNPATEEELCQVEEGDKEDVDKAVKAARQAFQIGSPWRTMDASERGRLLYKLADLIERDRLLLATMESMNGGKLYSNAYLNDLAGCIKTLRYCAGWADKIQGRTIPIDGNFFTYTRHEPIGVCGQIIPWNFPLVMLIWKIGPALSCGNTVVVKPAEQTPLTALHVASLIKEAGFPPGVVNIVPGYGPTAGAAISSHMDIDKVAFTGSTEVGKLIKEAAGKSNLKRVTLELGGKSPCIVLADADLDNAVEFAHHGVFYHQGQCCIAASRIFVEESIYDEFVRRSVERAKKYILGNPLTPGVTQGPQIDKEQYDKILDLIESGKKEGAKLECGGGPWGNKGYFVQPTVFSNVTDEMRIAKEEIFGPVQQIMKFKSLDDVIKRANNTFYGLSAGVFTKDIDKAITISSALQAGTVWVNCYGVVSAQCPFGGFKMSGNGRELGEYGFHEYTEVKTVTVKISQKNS

Compound	Potency	activity, negative = inhibition
COc1ccc(C2=Nn3c(nnc3-c3ccco3)SC2)cc1	inconclusive [inhibitor, single point]	–
Cc1cc(N2CCN(c3ccccn3)CC2)n2cc(-c3ccccc3)nc2n1	inconclusive [inhibitor, single point]	–
CCOC(=O)Cc1csc(NC(=O)CSc2cc(Cl)ccc2Cl)n1	inactive	–
COc1cccc(-n2nnc3c(=O)n(CC(=O)N4CCCc5ccccc54)cnc32)c1	inconclusive [inhibitor, single point]	–
O=C(Nc1ncc2c(n1)-c1ccccc1OC2)c1cccc([N+](=O)[O-])c1	inconclusive [inhibitor, single point]	–
Cc1ccc(C(=O)Nc2nc(-c3ccccn3)cs2)o1	inconclusive [inhibitor, single point]	–
Cc1ccc(S(=O)(=O)Nc2cc(C)c(O)c(S(=O)(=O)c3ccc(C)cc3)c2)cc1	active: 0.631 µM	–
Cc1ccc(Nc2c([N+](=O)[O-])c(=O)oc3ccccc23)cc1C	inactive	–
Cc1ccc(C(C[N+](=O)[O-])n2nc(C)cc2C)cc1 (stereo unspecified)	inconclusive [inhibitor, full curve, poor fit]	–
O=C(COC(=O)/C=C/c1ccco1)Nc1ncc(C(F)(F)F)cc1Cl	inactive	–
CCOc1cc(/C=C(/C#N)c2nc3ccccc3[nH]2)ccc1OCc1ccc(C(=O)O)o1	inconclusive [inhibitor, partial curve]	–
COc1cccc(-c2nc(CS(=O)CC(=O)NCc3ccc4c(c3)OCO4)c(C)o2)c1 (stereo unspecified)	inconclusive [inhibitor, single point]	–
CCC1(C)Cc2c(sc(NC(=O)CCC(=O)O)c2C#N)CO1 (stereo unspecified)	inactive	–
CC[C@@H]1C(c2ccccc2)=NN(c2ccccc2)[C@H]1C(=O)N1CCOC1=O	inactive	–
Cc1cc(NCC(c2ccccc2)c2ccccc2)n2ncnc2n1	inconclusive [inhibitor, partial curve]	–
CC(C)(C)C1=CC(=O)C(=O)C(C(C)(C)C)=C1	active: 2.82 µM	–
Cc1ccc(C(=O)c2sc(Nc3ccccc3)c(C#N)c2N)cc1	inconclusive [inhibitor, partial curve]	–
CCOC(=O)c1cc(NC(=O)C2C3CCC(O3)C2C(=O)O)cc(C(=O)OCC)c1 (stereo unspecified)	inconclusive [inhibitor, partial curve]	–
COc1ccc(-n2nnc3c(=O)n(Cc4ccccc4C)cnc32)cc1	inactive	–
Cc1nc2nc(-c3cccnc3)nn2c(C)c1Cl	inconclusive [inhibitor, single point]	–
Cn1cccc1-c1cc(C(=O)N/N=C/c2cccc(O)c2)[nH]n1	inactive	–
COc1ccc(C2CC(c3ccccc3)=NN2C(=O)CSc2ncn[nH]2)cc1 (stereo unspecified)	inconclusive [inhibitor, partial curve, poor fit]	–
CC(=O)c1ccc(NC(=S)NCCc2ccc(S(N)(=O)=O)cc2)cc1	inconclusive [inhibitor, single point]	–
Cc1cccc2[nH]c3c(N4CCC5(CC4)OCCO5)ncnc3c12	inconclusive [inhibitor, partial curve]	–

Compound	Potency	activity, negative = inhibition
COc1ccccc1/C=C1\Cc2ccccc2C1=O	inactive	–
Cc1c(Cl)cccc1NC(=O)CSC(N)=O	inconclusive [inhibitor, full curve]	–
CSc1ccc(S(=O)(=O)N2CCN(Cc3ccc4c(c3)OCO4)CC2)cc1	active: 14.1 µM	–
Cc1cc2c(nc1C)CCCN2C[C@H](C)O/N=C\[C@@H](C)[C@H](OCc1ccccc1)C(C)C	–	inactive: -13.9% [at 13.5 µM]
Cc1cc2c(cc1C)NC1=C(N2)OC(c2cccc(O)c2)C1=O (stereo unspecified)	inconclusive [inhibitor, partial curve]	–
O=C(CSc1nnc(Cn2nnc(-c3ccccc3)n2)n1-c1ccccc1)Nc1ccccc1	active: 4.47 µM	–
CSc1nnc(-c2cc3ccccc3cc2O)n1C	inconclusive [inhibitor, single point]	–
Cc1cc(C)c2oc(-c3ccc(Cl)c(NC(=O)c4ccc(C#N)cc4F)c3)nc2c1	inconclusive [inhibitor, partial curve]	–
C=CCN1C(=O)/C(=C/c2ccccc2)S/C1=N/c1nccs1	inconclusive [inhibitor, partial curve]	–
Cn1c(=O)n(C)c2cc(S(=O)(=O)N3CCCc4ccccc43)ccc21	inconclusive [inhibitor, full curve]	–
Cc1nc(SC2CC(=O)N(c3cc(Cl)cc(Cl)c3)C2=O)nc2c1CCCC2 (stereo unspecified)	inconclusive [inhibitor, single point]	–
S=C1NC2(CCCCC2)Nc2ccccc21	inconclusive [inhibitor, single point]	–
Cc1cccc(OCc2nnc(SCC(=O)N3CCN(C(=O)c4ccco4)CC3)n2C)c1C	inconclusive [inhibitor, single point]	–
O=C(CCCCCN1C(=O)CCC1=O)Nc1ccc2c(c1)OCO2	inconclusive [inhibitor, single point]	–
O=C(O)c1cccc(Cn2c(Cl)c(/C=N/NC(=O)c3ccccc3Cl)sc2=O)c1	inconclusive [inhibitor, single point]	–
O=C(CN(Cc1ccc2c(c1)OCO2)C(=O)CNC(=O)c1ccco1)NC1CCCCC1	active: 22.4 µM	–
CC(=O)N(C)C1=C(N2CCOCC2)C(=O)c2ccccc2C1=O	inconclusive [inhibitor, single point]	–
CCCCNC(=O)COC(=O)c1c2c(nc3ccccc13)/C(=C/c1cccs1)CC2	inconclusive [inhibitor, single point]	–
CC(C)(C)NC(=O)C(=O)NNC(=O)c1ccco1	inactive	–
CCCCOc1ccccc1C1C(C(N)=O)=C(C)Nc2nnnn21 (stereo unspecified)	inactive	–
O=C(CSCc1ccc(Cl)cc1)NN=C1CCCCCC1	active: 14.1 µM	–
Cc1ccsc1/C=N/NC(=O)c1ccc([N+](=O)[O-])cc1	inactive	–
CCc1ccc(C(=O)COC(=O)c2cncc(Br)c2)cc1	inactive	–
Cc1ccc(NC2c3ccccc3C(=O)N2CCN2CCOCC2)cc1 (stereo unspecified)	active: 1 µM	–

Compound	Potency	activity, negative = inhibition
CC(C)(C)NC(=O)COc1ccc(CNCCc2ccccc2)cc1	inconclusive [inhibitor, single point]	–
COc1ccc(/C=N/NC(=O)c2ccc(COc3ccccc3Cl)o2)cc1	inconclusive [inhibitor, single point]	–
COc1ccc(C(=O)NC(=S)N2CCCCC2)cc1[N+](=O)[O-]	inconclusive [inhibitor, single point]	–
COc1ccc(NC(=O)C2=C(C)C(=O)OC23CCC(C)CC3)cc1Cl (stereo unspecified)	inconclusive [inhibitor, partial curve]	–
COCCOC(=O)c1c(NC(=O)CN(C)c2ccccc2)sc(C(N)=O)c1C	inconclusive [inhibitor, full curve]	–
CCCn1c(-c2ccc(OC)cc2)nc2nc3ccccc3nc21	inconclusive [inhibitor, partial curve]	–
Cn1c(=O)c2[nH]c(-c3ccc(S(=O)(=O)O)cc3)nc2n(C)c1=O	inconclusive [inhibitor, partial curve]	–
O=C(NC(=S)N1CCCc2ccccc21)c1ccc(Br)cc1	inconclusive [inhibitor, partial curve]	–
Cc1ccc(NC(=O)COC(=O)CCc2ccc(S(=O)(=O)N3CCOCC3)cc2)cc1C	inconclusive [inhibitor, partial curve]	–
COc1ccc(Cl)cc1NC(=S)N(CCCN1CCOCC1)Cc1cn(C)c2ccccc12	inactive	–
CSc1nc2c(c(=O)[nH]1)C(c1ccccc1)C1=C(CC(C)(C)CC1=O)N2 (stereo unspecified)	inconclusive [inhibitor, partial curve]	–
NC(=O)CSc1nnc(-c2ccc(S(=O)(=O)N3CCCCC3)cc2)n1-c1ccccc1	active: 15.8 µM	–
O=C(NC1CCCC1)c1cc(-c2cccs2)on1	inconclusive [inhibitor, single point]	–
CCn1c(Cc2ccccc2)nnc1SCC(=O)Nc1cc(C)on1	inactive	–
COc1cccc(/C(C#N)=C/c2c(-c3ccc(Cl)cc3)nc3c(C)cccn23)c1	inactive	–
O=C(c1cc2c(ccc3ccccc32)oc1=O)N1CCCC1	inconclusive [inhibitor, partial curve]	–
COc1ccc(-n2c(=O)c(-c3ccccc3)nc3cnc(N4CCN(C)CC4)nc32)cc1	inconclusive [inhibitor, single point]	–
NNC(=O)COc1ncn(-c2ccccc2)n1	inconclusive [inhibitor, partial curve, poor fit]	–
c1ccc(NCc2cccnc2)cc1	inactive	–
Cc1ccc([N+](=O)[O-])cc1N/C=C1\CCc2ccccc2C1=O	inconclusive [inhibitor, full curve]	–
CC(=O)C1=C(C)NC(SCC(=O)c2ccc(Cl)cc2)=C(C#N)C1CC(C)C (stereo unspecified)	active: 14.1 µM	–
COc1ccc(-c2ccc(C#N)c(OC)n2)cc1	inconclusive [inhibitor, partial curve]	–
COc1ccc(N=C2C(=Nc3ccc(OC)cc3)N(c3ccc(OC)cc3)C(=S)N2C(=O)c2ccc(OC)cc2)cc1	inconclusive [inhibitor, single point]	–
